We go through 56 compounds from PMC4336329 (PLoS ONE, 2015).

The whole screen tested about 310,000 compounds, of which about 2,200 (0.71%) showed an effect of 50% or more. Effects have a minus sign here. Some of the results follow.

The target in the assay is human ether-à-go-go-related gene (hERG) potassium channel (human, UniProt Q12809). The assay can be described thus: primary screen, population patch clamp on CHO cells stably expressing hERG.
human ether-à-go-go-related gene (hERG) potassium channel, sequence (Q12809 whole entry, looked up): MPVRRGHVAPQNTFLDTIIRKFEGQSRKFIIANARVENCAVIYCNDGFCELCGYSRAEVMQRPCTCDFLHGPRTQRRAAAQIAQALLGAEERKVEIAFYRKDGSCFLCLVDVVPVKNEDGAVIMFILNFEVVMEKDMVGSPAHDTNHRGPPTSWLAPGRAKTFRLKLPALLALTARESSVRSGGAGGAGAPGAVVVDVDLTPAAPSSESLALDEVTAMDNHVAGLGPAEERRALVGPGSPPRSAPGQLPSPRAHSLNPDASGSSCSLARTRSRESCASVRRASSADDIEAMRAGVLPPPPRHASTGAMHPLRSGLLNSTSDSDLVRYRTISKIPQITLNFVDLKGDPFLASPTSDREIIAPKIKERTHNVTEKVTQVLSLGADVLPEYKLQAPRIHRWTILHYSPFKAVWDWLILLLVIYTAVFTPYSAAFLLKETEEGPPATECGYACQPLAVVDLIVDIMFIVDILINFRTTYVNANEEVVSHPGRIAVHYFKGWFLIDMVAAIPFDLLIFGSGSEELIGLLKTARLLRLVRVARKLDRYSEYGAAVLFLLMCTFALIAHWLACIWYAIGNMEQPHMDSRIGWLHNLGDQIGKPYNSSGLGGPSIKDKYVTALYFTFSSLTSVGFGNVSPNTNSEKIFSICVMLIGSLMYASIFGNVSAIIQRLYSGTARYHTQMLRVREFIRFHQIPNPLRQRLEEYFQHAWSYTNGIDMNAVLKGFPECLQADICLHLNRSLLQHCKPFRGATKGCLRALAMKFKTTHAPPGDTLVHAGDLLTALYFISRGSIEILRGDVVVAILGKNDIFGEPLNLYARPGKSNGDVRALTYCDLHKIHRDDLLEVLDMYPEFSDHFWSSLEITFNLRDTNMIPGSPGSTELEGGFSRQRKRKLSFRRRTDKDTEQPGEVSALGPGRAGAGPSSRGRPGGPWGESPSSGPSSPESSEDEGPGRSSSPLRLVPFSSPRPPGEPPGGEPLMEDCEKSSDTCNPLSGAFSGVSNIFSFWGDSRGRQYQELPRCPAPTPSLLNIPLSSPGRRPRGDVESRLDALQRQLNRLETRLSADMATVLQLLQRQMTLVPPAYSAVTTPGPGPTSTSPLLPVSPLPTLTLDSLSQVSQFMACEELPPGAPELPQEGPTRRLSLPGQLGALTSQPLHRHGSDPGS
`CCc1cc(-c2n[nH]c(C)c2-c2nc(C)cs2)c(O)cc1OC`: the “hERG current change (%, negative = inhibition) at 1uM” value was found to be 10.9%. With `O=C(NCCc1ccccc1)C1CCC(Cn2c(=O)c3ccccc3n(Cc3cccnc3)c2=O)CC1` (centres unmarked) the figure was 4.89%; with `CC(=O)NC(Cc1ccc(F)cc1)C(=O)NC1CCN(C(=O)Nc2ccc(F)cc2)CC1` (centres unmarked), 10.6%; with `COc1cc(CCC(=O)OCC(=O)Nc2cccc(S(=O)(=O)N(C)C)c2)cc(OC)c1OC`, -5.13%. The figure for `COc1ccc(OCC(=O)NC2CCCCCCC2)cc1` is 8.18%; for `COC(C(=O)Nc1ccc(F)cc1F)c1ccccc1` (centres unmarked) it is 3.37%.

Regarding `Cc1ccc(NC(=O)c2cc(-c3ccccc3)n(CCCN3CCOCC3)c2C)cc1`, the “hERG current change (%, negative = inhibition) at 1uM” value is 4.23%. The figure for `COc1ccc(NC(=O)[C@H](C)NC(=O)C2CCN(S(=O)(=O)c3ccc(C)cc3)CC2)cc1` is 7.16%. With `COc1ccc2[nH]cc(CCn3ccc(=O)c(C)c3C)c2c1` the figure was 18%; with `COc1ccc2c(c1)n([O-])c1c([n+]2=O)CCC1`, 4.03%. The figure for `CC1Cc2ccccc2N1C(=O)CCn1c(=O)oc2ccccc21` (centres unmarked) is 13.7%; for `Cc1cc(C)n2nc(C(=O)OCC(=O)c3cc(C)n(CC4CCCO4)c3C)nc2n1` (centres unmarked) it is 15.5%; for `Cc1oc(-c2cc(F)cc(F)c2)nc1CN1CCSCC1` it is 4.74%. Turning to `CCc1ccccc1NC(=S)N(CCCN1CCOCC1)Cc1ccccn1`, the “hERG current change (%, negative = inhibition) at 1uM” value is listed as 3.92%. With `CCCC1C2C(=O)N(c3ccccc3OC)C(=O)C2ON1c1ccccc1` (centres unmarked) the figure was 10.2%. The figure for `O=C(CCc1nc(-c2ccccc2)no1)N1CCCC1` is 13.6%; for `CCOC(=O)c1sc(=NC(=O)c2cccc(OC)c2)n(C)c1C` it is 7.41%. With `O=C(NCCN1CCOCC1)c1sc2cc(Cl)ccc2c1Cl` the figure was 6.87%. Regarding `CCOC(=O)Nc1cccc(OCC(=O)Nc2ccc(OC)cc2OC)c1`, the “hERG current change (%, negative = inhibition) at 1uM” value stood at 11%.

Consider `CCCn1ccnc1SCC(=O)Nc1c(C)n(C)n(-c2ccccc2)c1=O`, for which the “hERG current change (%, negative = inhibition) at 1uM” value was -16.1%. Consider `Cc1cccc(Sc2ccc([N+](=O)[O-])cc2[N+](=O)[O-])n1`, for which the “hERG current change (%, negative = inhibition) at 1uM” value is reported as 16.9%.

On to `CCOCCCn1c(C)nc2c[n+](CC(=O)c3ccc4ccccc4c3)cc(Br)c21.[Br-]`, for which the “hERG current change (%, negative = inhibition) at 1uM” value is 8.91%. The figure for `O=c1[nH]c(C(Cl)(Cl)Cl)nc2ccc3ccccc3c12` is 9.83%; for `CN(CC(=O)Nc1ccccc1Cl)C(=O)C1CSC2(C)CCC(=O)N12` (centres unmarked) it is 8.28%; for `O=C(NCCCN1CCC(Cc2ccccc2)CC1)c1ccc2nc(N3CCOCC3)sc2c1` it is -15%.

In the case of `CCCCn1nnnc1SCC(=O)Nc1cccc(C)c1`, the “hERG current change (%, negative = inhibition) at 1uM” value turned out to be 11.1%.

Regarding `CCCCOC(=O)/C=C/c1ccc(OC(=O)OC)c(OC(=O)OC)c1`, the “hERG current change (%, negative = inhibition) at 1uM” value came to 10.7%. The figure for `CC(=O)c1cccc(NC(=S)NC(=O)Cc2ccc(Cl)cc2)c1` is 14.7%; for `COC(=O)CN1C(=O)C(O)(CC(=O)c2ccc(Cl)cc2)c2ccccc21` (centres unmarked) it is 3.9%.

As to `CC(C)CCNC(=O)C(=O)Nc1cc2c3c(c1)CCC(=O)N3CCC2`, the “hERG current change (%, negative = inhibition) at 1uM” value was 12.5%.

Regarding `O=C(COC(=O)/C=C/c1ccccc1)Nc1ccc2c(c1)OCCO2`, the “hERG current change (%, negative = inhibition) at 1uM” value was -5.37%. In the case of `COc1cccc(NC(=O)NCc2ccccc2Cl)c1`, the “hERG current change (%, negative = inhibition) at 1uM” value was found to be 4%.

For the compound `O=C(Cn1c(=O)cnc2ccccc21)NNC(=O)c1ccc(Cl)cc1`, the “hERG current change (%, negative = inhibition) at 1uM” value is 15.9%. Take `CN1CCN(S(=O)(=O)c2cccc(C(=O)N(Cc3nnc(-c4ccccc4Cl)o3)C3CC3)c2)CC1`: the “hERG current change (%, negative = inhibition) at 1uM” value was -2.29%. With `C[C@]12C=CC(=O)C=C1CC[C@@H]1C2C(O)C[C@@]2(C)C1CC[C@]2(O)C(=O)COC(=O)CCC(=O)NC(CC(=O)O)C(=O)O` (some centres unmarked), the “hERG current change (%, negative = inhibition) at 1uM” value came out at 0.298%. The figure for `O=c1c2nncn2c2cc(C(F)(F)F)ccc2n1CCNc1ncc(C(F)(F)F)cc1Cl` is 2.31%; for `O=C(Nc1ccc(Br)cn1)c1ccc(COc2c(F)c(F)cc(F)c2F)o1` it is 5.22%; for `CCCCSCCCNC(=O)CCCN1C(=O)c2ccccc2Sc2ncccc21` it is 5.99%. The figure for `CN(Cc1ccccc1)C(=O)c1cc(=O)[nH]c2ccccc12` is 13.2%; for `C(#CCN1CCCCC1)COCc1ccccc1.Cl` it is 9.67%.

As for `O=C(c1ccc2c(c1)CCN2S(=O)(=O)c1ccccc1)N1CCN(c2ccccc2)CC1`, the “hERG current change (%, negative = inhibition) at 1uM” value worked out at 19.5%. Take `CC1(C)CC(=O)c2c(O)cc(OCC(=O)N3CCN(c4ccccc4)CC3)cc2O1`: the “hERG current change (%, negative = inhibition) at 1uM” value is 9%. With `COc1cc(C(=O)Oc2cc(C)[nH]c(=O)c2[N+](=O)[O-])cc(OC)c1OC` the figure was 5.77%; with `Cc1cccc(NC(=O)CC23CC4CC(C2)CC(n2nnc(C)n2)(C4)C3)c1`, 1.99%; with `Cc1cc(OCCCN2CCCC2)ccc1Cl`, 1.47%. With `CCN(CC(=O)NCc1ccc(Cl)cc1)C(=O)CCOc1ccccc1C` the figure was -38.8%. With `CC(C)CC(=O)Nc1ccc2oc(-c3ccncc3)nc2c1` the figure was 10.9%; with `Cc1c(NC(=S)NC(=O)c2cc3ccccc3o2)cccc1C(=O)O`, 3.01%; with `CC(C)(C)NC(=O)c1cccc(NC(=O)c2ccc3c(c2)C(=O)N(C(C)(C)C)C3=O)c1`, 18.2%. For `COCCNc1oc(/C=C/c2ccccc2OC)nc1S(=O)(=O)c1ccccc1`, the “hERG current change (%, negative = inhibition) at 1uM” value is 5.37%. The figure for `COc1cc(CNc2nc3ccccc3s2)cc(OC)c1OC` is 9.2%.

Take `CC(=O)COC(=O)CCc1nc2ccccc2[nH]c1=O`: the “hERG current change (%, negative = inhibition) at 1uM” value worked out at 0.934%. `CCN(CC)c1ccc(NC(=O)c2cccc(OC)c2)c(C)c1`: the “hERG current change (%, negative = inhibition) at 1uM” value turned out to be 7.07%. For `CC1CCN(S(=O)(=O)c2c[nH]c(=O)[nH]c2=O)CC1`, the “hERG current change (%, negative = inhibition) at 1uM” value turned out to be 7.57%. Regarding `Cn1cc(/C=C2\SC(=O)NC2=S)c2ccccc21`, the “hERG current change (%, negative = inhibition) at 1uM” value was found to be 11.2%. The figure for `COc1ccc2oc3c(c2c1)NC(=O)CN=C3c1ccccc1` is 19.8%.
